# Results as given in the supplement of paper PMC3334620.
# In all, about 33,000 sequences were measured (“E-score (-0.5 to 0.5)”: median about -0.054, highest 2% from about 0.35 on). This is one part of the list.
# Target: T1, Stb5 (UniProt P38699)
# T1 sequence: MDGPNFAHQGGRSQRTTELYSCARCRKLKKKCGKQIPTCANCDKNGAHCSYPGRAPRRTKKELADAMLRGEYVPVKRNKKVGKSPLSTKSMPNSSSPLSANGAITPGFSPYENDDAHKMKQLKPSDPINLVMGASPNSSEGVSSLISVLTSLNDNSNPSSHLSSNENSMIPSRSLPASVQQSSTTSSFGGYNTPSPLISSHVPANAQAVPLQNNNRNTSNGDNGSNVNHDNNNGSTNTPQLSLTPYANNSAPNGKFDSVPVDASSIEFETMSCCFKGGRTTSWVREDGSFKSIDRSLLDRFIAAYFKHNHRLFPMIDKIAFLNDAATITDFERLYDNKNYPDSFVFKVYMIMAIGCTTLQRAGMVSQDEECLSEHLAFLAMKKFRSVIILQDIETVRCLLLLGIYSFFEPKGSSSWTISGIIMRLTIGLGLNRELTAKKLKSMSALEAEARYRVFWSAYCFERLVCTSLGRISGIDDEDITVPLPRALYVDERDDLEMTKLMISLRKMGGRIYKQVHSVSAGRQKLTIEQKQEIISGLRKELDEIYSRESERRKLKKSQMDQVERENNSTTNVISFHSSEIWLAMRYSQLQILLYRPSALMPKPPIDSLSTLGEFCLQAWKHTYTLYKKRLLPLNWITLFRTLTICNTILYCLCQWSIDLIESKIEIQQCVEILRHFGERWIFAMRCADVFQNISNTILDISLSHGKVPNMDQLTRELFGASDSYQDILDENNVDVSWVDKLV
# Experiment: PBM E-score (8-mer binding enrichment) (E-score (-0.5 to 0.5)); higher = stronger / more preferred TF binding; most listed sequences are background and not binding sites
# Settings: protein concentration: 200 nM; construct: GST-full length
# Summary of the method: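 Universal all-10-mer Agilent arrays, fresh or stripped once, were converted to double-stranded form by primer extension. GST-tagged yeast transcription factors from PURExpress in vitro transcription/translation, full-length or DNA-binding domain only, were applied at about 100-200 nM and detected with fluorescent anti-GST. After masliner normalisation, the Universal PBM Analysis Suite scored each ungapped eight-base word together with its reverse complement by E-score.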
row,Sequence,PBM E-score
1,TATATTCA,-0.0799
2,CCAAGTGG,-0.253
3,CGCTCGGA,0.238
4,TAGTACCA,0.107
5,CAGTTATA,0.0952
6,CACGTACG,-0.167
7,TGAGAGAA,-0.198
8,AGACGGTC,0.142
9,GTCACAGA,-0.229
10,ATAGCGAA,-0.231
11,CCCTCTAA,-0.206
12,CAACTCGC,-0.138
13,ACCTAGAT,-0.154
14,CGTCCGTA,0.127
15,CTTGTCCA,-0.301
16,CAACAATC,-0.18
17,TAGGCCGA,0.125
18,CTTATTTA,0.0282
19,CCAATACC,0.261
20,GCACCGGA,0.338
21,CGAGTGGA,-0.107
22,CTGTTTTA,0.174
23,CAACATGC,0.0202
24,AAAAGGTC,-0.0621
25,TACATATA,0.0481

row,Sequence,PBM E-score
1,CCATCTTC,-0.0469
2,TCACAGGA,-0.188
3,TGTTGTAA,-0.125
4,AGACTAGA,-0.17
5,GGTCCGAA,0.328
6,ACACCAAC,-0.142
7,GCGGAACC,0.159
8,ACGCTACA,-0.221
9,CAACGTGA,-0.147
10,ATGATGCG,-0.12
11,CCGCGCCG,0.288
12,CCCGAGTC,0.0364
13,AATCCTTC,-0.0568
14,CACACCAC,-0.199
15,TACGTTCA,-0.255
16,AAACTGCG,0.209
17,ATGCGCGG,0.309
18,GTTTGTTA,0.0212
19,ATGGCAGA,0.00567
20,ATTGATCG,0.12
21,CTAGTCGC,-0.00949
22,CAGGAACA,-0.216
23,CTAGACAA,-0.0874
24,GACGTGAA,-0.129
25,AACTAGCC,-0.148

row,Sequence,PBM E-score
1,GAAGCGGC,0.308
2,AGGGGGGC,-0.15
3,ACGGCCCC,0.0517
4,ACAGCAAG,-0.258
5,ATTTACAA,-0.174
6,TCCGTCAA,0.229
7,ATAACTTG,-0.112
8,AATTTCAG,-0.311
9,AATAACCG,0.272
10,CCTTGCCC,-0.0119
11,AAAACTTA,-0.196
12,AGCCAAGG,-0.302
13,AGCTAGAC,-0.127
14,CTACCCTC,-0.209
15,ACCAGCAA,0.0414
16,ACGAGCCT,-0.2
17,AGCGTATC,-0.134
18,GCCCTCGA,-0.214
19,CGTAGGCC,-0.0749
20,GATTGGCA,-0.187
21,TCAATCCA,-0.0437
22,CTAAGCAG,-0.121
23,ATGGGTTG,-0.292
24,GCACCCAA,0.0215
25,GTCATGTA,0.0223

row,Sequence,PBM E-score
1,GCGATCAA,-0.0153
2,ATGAGATA,-0.209
3,CCGGTCCG,0.295
4,CCCGTCTC,0.308
5,TCCGAGGA,0.157
6,GGACTTAC,0.358
7,AGACATAC,-0.141
8,AGAGGCAT,-0.142
9,CCAGCAAC,-0.052
10,CGGATTTA,0.452
11,AGCGTCCG,0.103
12,AGTGTGAA,-0.153
13,GAATGTTA,0.06
14,ATGCATCG,0.0654
15,AAAGAGAC,-0.0831
16,ACGGCGAC,0.264
17,AATTTAGG,-0.0554
18,AAGCATAA,-0.106
19,GATGCTAA,0.0589
20,ACTCCGGC,0.307
21,ATCGTAGC,-0.217
22,GACAACTA,-0.06
23,ACTTGACC,-0.0754
24,ACCGTGAC,0.254
25,CGTGGTAC,-0.0493

row,Sequence,PBM E-score
1,TCCATACA,-0.157
2,AAAAATGG,0.00569
3,TATTTCCA,0.123
4,AAGCGTTG,-0.212
5,CTATAGCA,-0.0419
6,AGGAGAGC,-0.216
7,AGAAGACA,-0.199
8,CGGAGCCC,0.0294
9,ATACAGTA,-0.0999
10,CCGGGCAG,0.14
11,CAGCCGCG,0.0138
12,CAGTCGTC,-0.13
13,CATCGAGC,-0.00818
14,CTCCGGTC,0.308
15,GAATGGCC,0.0263
16,CCTCCTGA,-0.105
17,CTACTTAA,-0.173
18,CATTCAAG,-0.205
19,AGTCCTAG,-0.238
20,CCTCCGTA,0.184
21,GAGTATGC,-0.0395
22,GACACGTA,-0.103
23,GGCTCACA,-0.0687
24,AGCGTCTC,-0.21
25,AAGGACCG,0.383

row,Sequence,PBM E-score
1,CAGCGTAG,-0.0828
2,CATGTCGG,0.275
3,ACAGTCGG,0.282
4,CTTAGTTA,-0.152
5,GGATGACA,-0.105
6,ATCCAAGG,-0.0257
7,AGTCCTAA,-0.218
8,TAACACGA,-0.00801
9,TGGACTAA,-0.0846
10,ACACACGT,-0.161
11,AGCAAAAA,-0.0919
12,ACGTAATC,-0.0967
13,CTTCCGTA,0.107
14,ACTATCGG,0.299
15,CAATGTCA,-0.215
16,CCGAGGCG,0.175
17,TCACGGCA,0.137
18,CCACATCA,-0.0508
19,ACTCTGTG,-0.0679
20,ACCCCTGA,-0.108
21,AACCCCGG,0.453
22,ATGGATTC,-0.299
23,AATTGAGT,-0.167
24,CGGTGCCC,0.27
25,AAAAAAGT,-0.0146

row,Sequence,PBM E-score
1,CTGTAACA,-0.198
2,AAGGTCAT,-0.0505
3,ACTTCACT,-0.213
4,AGTTGGCA,-0.271
5,AATAAGGA,-0.12
6,ATTTAAAG,0.197
7,GTGATAGA,0.081
8,GCAATGAA,-0.113
9,GCGGAAGC,0.0861
10,CTGGGACC,-0.117
11,CCGCGATC,0.313
12,CTGCTCAA,-0.16
13,GGCAAGCA,-0.281
14,ACTGTGAC,-0.142
15,AACCATAG,-0.146
16,CATTCCAC,0.0385
17,AACTCCAG,-0.0878
18,GGCTTAGA,-0.0994
19,ACAATCCA,-0.238
20,AACTTAGC,-0.238
21,AGATAAAG,0.0838
22,ATGACTCG,-0.138
